Hit rate of the full screen: of about 110,000 compounds, about 40 (0.04%) were called active. Inconclusive means that the source gave no clear call. Such entries were picked first, then a sample of the others. Calls come from the whole dose curve; as a rule, active = well fitted curve in the direction sought with a large enough effect in the signal ratio (not every such curve was filed as active); inconclusive = small, poorly fitted or top-dose-only effect, or a change in a side signal; inactive = flat fitted curve, though single readings scatter; the % refers to the signal ratio. Potencies of inconclusive entries are doubtful fits and often do not repeat.
assay: IkB Signaling; details: ABC-DLBCL IkBa-CBG/CBR dual luciferase ratio (green luciferase fused to IkBa over red control in OCI-Ly3 lymphoma cells), 4 h; IkBa stabilization activation: at 57.1 µM (top of the series), scaled: untreated 0%, proteasome inhibitor 100% unless noted;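 for IkBa stabilization activation: 0% = basal untreated cells and 100% = reference inhibitor full response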
In short: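 Curves were fitted separately to fusion (green), unfused (red) and ratio luminescence, then classed by r2, magnitude and activity. Cells: OCI-Ly3, 4 h compound plus doxycycline at 37C; 10 uM MG-132 defined full response.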
Potency is the fitted concentration of half-maximal effect.

Compound	IkBa stabilization activation	Potency
COc1ccc(-n2nc(C(=O)Nc3cccc(C(F)(F)F)c3)c3c4ccccc4n(C)c3c2=O)cc1	inactive	
Cn1c(=O)[nH]c(=O)c2c1nc(N1CCCC1)n2CCCSc1nc2ccccc2o1	inactive	
Cc1nc(CC(=O)Nc2ccc(N(C)C)cc2)cs1	inactive	
COc1cc(C2CC(=O)c3c([nH]c(C(=O)OC4CCCCC4)c3C)C2)cc(OC)c1OC (stereo not drawn)	inconclusive: -0.713% [signal inhibitor]	
CCOC(=O)CSC1=C(C#N)C(c2ccccc2OCC)C(C#N)C(=O)N1 (stereo not drawn)	inconclusive: 14.2%	
Cc1ccc(CNC(=O)c2c3c(nc4ccccc24)C(=O)N(C2CCCCC2)C3)cc1	inconclusive: 0.915% [signal inhibitor]	
Cc1csc2nc(COC(=O)c3ccccc3NC(=O)c3ccc(F)cc3)cc(=O)n12	inconclusive: 2.95% [signal inhibitor]	
COc1cccc(NC(=O)CSc2nc3ccccc3nc2N2CCOCC2)c1	inconclusive: 13.5% [signal inhibitor]	
CCCN(C(=O)CCc1nc(-c2ccccc2F)no1)c1ccc(CC)cc1	inconclusive: 4% [signal inhibitor]	
COc1ccc(CC(=O)NCc2nc3cccnc3n2Cc2ccc(F)cc2)cc1OC	inconclusive: 1.14% [signal inhibitor]	
CCN(C(=O)c1oc2ccc(S(=O)(=O)N3CCCCCC3)cc2c1C)c1ccccc1	inconclusive: 1.43% [signal inhibitor]	
CCOC(=O)c1cccc(NC(=O)CN2C(=O)CC(C)(C)Sc3ccccc32)c1	inconclusive: 2.56% [signal inhibitor]	
CC1(C)CC(n2c(NCCO)nc3c(c2=O)C2(CCCC2)Cc2ccccc2-3)CCO1 (stereo not drawn)	inconclusive: -0.369% [signal inhibitor]	
CCN1C(=O)c2cccc3c(S(=O)(=O)Nc4nc(C)cs4)ccc1c23	inconclusive: 4.05% [signal activator]	
Cc1ccc(-n2ncc(C(=O)NCCN3CCc4ccccc4C3)c2C2CCN(C(=O)OC(C)(C)C)CC2)cc1	inconclusive: -2.05% [signal inhibitor]	
Cc1ccc(Nc2c(-c3ccc(N4CCOCC4)cc3)nc3ncccn23)cc1	inactive	
CC(=O)Oc1cccc(/C=c2\sc3nc(-c4ccco4)nn3c2=O)c1	inactive	
Cc1ccc(C(=O)Nc2c(C(=O)NCc3ccc(Cl)cc3)sc3nc(C)cc(C)c23)cc1	inconclusive: 2.54% [signal inhibitor]	
Cc1ccccc1OCCn1c(CCNC(=O)C(C)(C)C)nc2ccccc21		inconclusive: 12.6 µM [signal inhibitor, partial curve]
COc1ccc(C(C)C)cc1S(=O)(=O)NCCc1c(C)[nH]c2ccc(C)cc12	inconclusive: 4.87% [signal inhibitor]	
CC(C)(C)OC(=O)N1CCC(c2c(C(=O)N3CCc4ccccc4C3)cnn2-c2ccc(F)cc2)CC1	inactive	
CCc1ccc(CNC(=O)c2ccc(-c3nc(CS(=O)(=O)c4ccccc4)c(C)o3)cc2)cc1	inconclusive: -0.908% [signal inhibitor]	
COc1cc(C(=O)Nc2ccc3nc(SCc4ccccc4)sc3c2)cc(OC)c1OC	inconclusive: 1.2% [signal inhibitor]	

Compound	IkBa stabilization activation	Potency
CCN(C(=O)CSc1nc2ccccc2n1Cc1cc(C)ccc1C)c1ccccc1	inconclusive: 4.2% [signal inhibitor]	
O=C(Cn1nc(-c2ccc(Cl)cc2)ccc1=O)NCc1ccccc1Cl	inconclusive: 6.86% [signal inhibitor]	
COc1cccc(C2C(C(=O)Nc3ccc(C)cc3C)=C(C)Nc3c(C(=O)Nc4cccc(C)c4)cnn32)c1OC (stereo not drawn)	inconclusive: 2.49% [signal inhibitor]	
COc1ccc(OC)c(S(=O)(=O)Nc2ccc(O)c(Sc3ncn[nH]3)c2)c1	inactive	
Cc1cc(OCc2nc(N)nc(N)c2-c2ccc(Cl)c(Cl)c2)ccc1[N+](=O)[O-]	inactive: -0.635% [at 11.4 µM, scaled: untreated 0%, proteasome inhibitor 100%]	
CCOc1ccc(S(=O)(=O)Nc2ccc(S(=O)(=O)N3CCOCC3)cc2)cc1	inactive	
N=C(N)S/C=C\C(=O)O	inactive	
Cc1cccc(OCC(=O)N(Cc2sccc2C)C2CCS(=O)(=O)C2)c1 (stereo not drawn)	inconclusive: 1.08% [signal inhibitor]	
CN(C)c1ccc(/C=C2/C(=O)Nc3ccccc32)cc1	inconclusive: 17.2% [signal inhibitor]	inconclusive: 15.8 µM [rising, partial curve]
O=C(NCc1cccc(Cl)c1)C1CCN(C(=O)c2sccc2-n2cccc2)CC1	inconclusive: 1.1% [signal inhibitor]	
CCN(CCNC(=O)C1CCN(S(=O)(=O)c2cccc3nsnc23)CC1)c1ccccc1	inconclusive: 1.71% [signal inhibitor]	
COc1cccc(C(=O)Nc2cccc(C(=O)OCc3cc(=O)n4nc(C(C)C)sc4n3)c2)c1	inconclusive: 7.3% [signal inhibitor]	
CC(=O)N1CCC(N(C(=O)Nc2c(F)cccc2F)C(C)C)CC1	inconclusive: 0.596% [signal inhibitor]	
Cc1ccc(N(C)C(=O)c2cnc(N3CCOCC3)c3ccccc23)cc1C	inconclusive: 2.14% [signal inhibitor]	
COc1ccc(OC)c(CNC(=O)Cc2ccc(NC(=O)N3CCCCc4ccccc43)cc2)c1	inconclusive: 1.25% [signal inhibitor]	
COCCCNC(=O)c1c(NC(=O)Cc2coc3cc(C)cc(C)c23)sc2c1CCCC2	inconclusive: 0.0646% [signal inhibitor]	
CCN(CCCNC(=O)c1cc2c(=O)n(CC)c3ccccc3c2s1)c1ccccc1	inconclusive: -2.51% [signal inhibitor]	
c1ccc2c3c([nH]c2c1)-c1[nH]ncc1CC3	inconclusive: 0.807% [signal inhibitor]	
O=C(c1ccc2c(c1)N(Cc1ccccc1F)C(=O)c1ccccc1S2(=O)=O)N1CCCC1	inconclusive: -1.27% [signal inhibitor]	
COc1ccc(C(=O)N(Cc2cc(OC)c(OC)c(OC)c2)CC2CCCO2)cc1 (stereo not drawn)	inactive	
O=C(NCC(c1cccnc1)N1CCc2ccccc21)c1cccc(C(F)(F)F)c1 (stereo not drawn)	inconclusive: 3.38% [signal inhibitor]	
O=C(CSc1nccn1Cc1ccc(F)cc1)Nc1ccc2c(c1)OCCO2	inactive	
CCCNC(=O)CSc1nc2nc(C)c(Cc3ccccc3Cl)c(C)n2n1	inconclusive: -1.33% [signal inhibitor]	

Compound	IkBa stabilization activation	Potency
O=C(NCc1ccco1)c1cnn2c(C(F)(F)F)cc(-c3ccccc3)nc12		inconclusive: 12.6 µM [signal inhibitor, partial curve]
Brc1ccc(CSc2nnc(Cc3c[nH]c4ccccc34)o2)cc1	inconclusive: 0.295% [signal inhibitor]	
COc1ccc(CCCc2nnc(SCC(=O)Nc3ccc(C)cc3C)o2)cc1	inconclusive: 13.1% [signal inhibitor]	
COc1ccccc1-c1noc(-c2ccco2)n1	inactive	
COc1ccc(-c2cc(C(=O)OC(C)C(=O)c3ccccc3)c3cccc(Cl)c3n2)cc1 (stereo not drawn)	inconclusive: 1.21% [signal inhibitor]	
c1ccc(Nc2c(-c3c[nH]c4ccccc34)nc3ccccn23)cc1		inconclusive: 25.1 µM [signal inhibitor, partial curve]
CCOC(=O)CC(=O)CSc1ncnc2c1cnn2-c1ccccc1	inconclusive: 7.77% [signal inhibitor]	
Cc1ccc2nc(N3CCC(C(=O)N4CCN(c5cccc(Cl)c5)CC4)CC3)[nH]c2c1	inconclusive: 0.679% [signal inhibitor]	
COc1cc2cc(CNc3ccc(C)cc3)c(=O)n(CC(=O)Nc3ccc(F)cc3F)c2cc1OC	inactive	
COc1cc(C(=O)NCC(c2cccs2)S(=O)(=O)c2ccc(F)cc2)cc(OC)c1OC (stereo not drawn)	inconclusive: 6.22% [signal activator]	
CCOC(=O)c1c(C)[nH]c(CCC(=O)Nc2ccc(C)c(F)c2)c1C	inconclusive: 0.726% [signal inhibitor]	
Cc1ccccc1-c1noc(-c2ccc(O)cc2)n1	inconclusive: -5.82% [signal inhibitor]	
Cc1cccc(OCC(=O)Nc2ccc(Cl)c(-c3nc4ncccc4o3)c2)c1C	inconclusive: 5.91% [signal inhibitor]	
Cc1ccc2nc3c(cc(C#N)c(=O)n3CC3CCCO3)c(=O)n2c1 (stereo not drawn)	inactive	
Cc1ccc(-n2ncc(C(=O)NCc3cccs3)c2C2CCN(C(=O)OC(C)(C)C)CC2)c(C)c1	inconclusive: -0.937% [signal inhibitor]	
COc1ccc(NC(=O)C2=C(C)Nc3nc(SCc4ccccc4C)nn3C2c2cc(OC)c(O)c(OC)c2)cc1 (stereo not drawn)	inactive	
O=C(NCc1ccccc1Cl)c1ccc(CSCc2ccccc2Cl)o1	inconclusive: -1.45% [signal inhibitor]	
COc1ccc(OC)c(NC(=O)CSc2nnc3ccc4ccccc4n23)c1	inconclusive: 2.09% [signal inhibitor]	
Cc1cccc2cc(CN(Cc3ccco3)S(=O)(=O)c3ccc4c(c3)OCCO4)c(=O)[nH]c12	inconclusive: 2.64% [signal inhibitor]	
Cc1ccc(-c2nnc(Nc3cccc(O)c3)c3ccccc23)cc1S(=O)(=O)N1CCOCC1	inconclusive: 24.3% [signal inhibitor]	
CCc1ccc(NC(=O)CCn2nc(-c3ccccc3OC)c3c(C)cc(C)nc32)cc1	inconclusive: 2.84% [signal inhibitor]	

— PubChem BioAssay AID445 (National Center for Advancing Translational Sciences (NCATS), 2006)
